Measurements published in the supplement of paper PMC6206098.
± gives the uncertainty stated by the source. Shown are siRNA guide strands that differ only in the seed, positions 2 to 7.

How the values were obtained:
HeyA8 = experiment: cell viability relative to lipid-only control; higher = less toxic; conditions: concentration: 10 nM; 96 h; Homo sapiens
M565 = experiment: as above; conditions: concentration: 10 nM; 96 h; Mus musculus
H460 = experiment: as above; conditions: concentration: 10 nM; 96 h; Homo sapiens
3LL = experiment: cell viability relative to siNT1 control; HeyA8 human ovarian and H460 human lung cancer; M565 mouse liver and 3LL mouse lung cancer; siNT1 is a non-toxic control siRNA; higher = less toxic; conditions: concentration: 10 nM; 96 h; Mus musculus
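Throughout, for cell viability relative to lipid-only control: reverse lipid transfection in 384-well plates, in triplicate, of duplexes on a non-toxic 19mer backbone with passenger strand 2′-O-methylated at positions 1 and 2, luminescence viability read-out.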
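Throughout, for cell viability relative to siNT1 control: Luminescence-based viability of cells reverse transfected in 384-well plates with lipid-complexed siRNAs built on a non-toxic 19mer backbone whose passenger strand carries 2′-O-methyl groups at positions 1 and 2, triplicates.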

Sequence | cell viability (HeyA8) [%] | cell viability (M565) [%] | cell viability (H460) [%] | cell viability (3LL) [%]
UCGUACGACAUGUAAACCAAA | 79 ± 5.2 | 94.1 ± 13 | 95.7 ± 13 | 86.3 ± 18
UUAUGGCACAUGUAAACCAAA | 63.4 ± 2.4 | 9.2 ± 0.82 | 57.7 ± 1.8 | 18.7 ± 1.9
UAAACGCACAUGUAAACCAAA | 79.8 ± 17 | 77.4 ± 5.6 | 59.2 ± 4.6 | 65.4 ± 4.7
UGUUGAUACAUGUAAACCAAA | 15.5 ± 1.9 | 10.3 ± 1 | 37.2 ± 3.4 | 50 ± 6.8
UCUUUAGACAUGUAAACCAAA | 86 ± 7.1 | 61.7 ± 12 | 65.1 ± 12 | 90.8 ± 12
UGCCCUGACAUGUAAACCAAA | 78.1 ± 2.8 | 44.9 ± 4.7 | 45.5 ± 5.5 | 77.4 ± 7.8
UCUCUGGACAUGUAAACCAAA | 63.6 ± 2.9 | 9.64 ± 1.7 | 34.8 ± 2.7 | 55.3 ± 5.8
UCUCGCCACAUGUAAACCAAA | 76 ± 2.2 | 49.3 ± 12 | 40.4 ± 1.9 | 77.1 ± 18
UUAAGGGACAUGUAAACCAAA | 74.2 ± 5.4 | 16.9 ± 3 | 55.8 ± 9.2 | 35.2 ± 7.2
UACUCAUACAUGUAAACCAAA | 61.9 ± 6.5 | 36.8 ± 5.8 | 72.1 ± 8.4 | 83.2 ± 7.5
UAUUCCGACAUGUAAACCAAA | 88.8 ± 10 | 90.3 ± 12 | 73.2 ± 7.5 | 90.4 ± 13
UAGUGAUACAUGUAAACCAAA | 23.2 ± 1.2 | 39.2 ± 4.6 | 22.4 ± 0.58 | 26.9 ± 1.4
UAAUUCGACAUGUAAACCAAA | 97 ± 5.9 | 73.2 ± 12 | 106 ± 14 | 118 ± 3.4
UACUAUUACAUGUAAACCAAA | 52.6 ± 3.9 | 71.3 ± 18 | 60.1 ± 4.5 | 93.6 ± 7.6
UCCGGAUACAUGUAAACCAAA | 64.6 ± 7 | 70.4 ± 13 | 68.4 ± 16 | 87.9 ± 26
UUUACGCACAUGUAAACCAAA | 91 ± 4.5 | 80.2 ± 19 | 89.7 ± 6.5 | 77.7 ± 4.6
UAGCGCAACAUGUAAACCAAA | 90.2 ± 6.1 | 55.4 ± 1 | 68.5 ± 5.2 | 89.8 ± 9
UGAUCAGACAUGUAAACCAAA | 50.4 ± 3.3 | 24.6 ± 10 | 45.7 ± 5.8 | 70.7 ± 14
UUACGCAACAUGUAAACCAAA | 98.8 ± 7.5 | 107 ± 3.1 | 74.9 ± 7.7 | 96.6 ± 3.9
UUGUACUACAUGUAAACCAAA | 60.9 ± 5.5 | 41.4 ± 13 | 46.9 ± 9.3 | 39.7 ± 2
UGGACCUACAUGUAAACCAAA | 49.5 ± 5.8 | 24.9 ± 2.2 | 50.9 ± 3.2 | 34.8 ± 2.5
UACGGAUACAUGUAAACCAAA | 65 ± 6.6 | 89.2 ± 7 | 65.9 ± 7.8 | 84.7 ± 6.5
UCAGCUGACAUGUAAACCAAA | 93 ± 9.9 | 60.1 ± 4.5 | 84.4 ± 5.8 | 95.1 ± 19
UUGAUCCACAUGUAAACCAAA | 72.3 ± 1.1 | 29.5 ± 13 | 60.3 ± 5 | 58.7 ± 2.4
UUGAGAAACAUGUAAACCAAA | 85.4 ± 10 | 88.3 ± 14 | 65.1 ± 6.1 | 85.8 ± 7.3
UUCCUGCACAUGUAAACCAAA | 41.2 ± 2.7 | 57.1 ± 8.9 | 30.9 ± 3.6 | 7.05 ± 1
UCAUCCCACAUGUAAACCAAA | 33.1 ± 1.9 | 13 ± 1.9 | 21.6 ± 2.5 | 12.4 ± 1.3
UGCACAAACAUGUAAACCAAA | 77.4 ± 3 | 57.9 ± 2.3 | 70 ± 9.1 | 65.9 ± 12
UGUGUUUACAUGUAAACCAAA | 33.8 ± 0.53 | 18.1 ± 3.3 | 49.5 ± 11 | 42.5 ± 3
UGGCCUCACAUGUAAACCAAA | 6.53 ± 1.3 | 8.85 ± 6.7 | 28 ± 4.1 | 53.1 ± 8.7
